The values below come from ChEMBL document CHEMBL4888484, “Replenishing the malaria drug discovery pipeline: Screening and hit evaluation of the MMV Hit Generation Library 1 (HGL1) against asexual blood stage Plasmodium falciparum ,using a nano luciferase reporter read-out” (2022).

Among all 150,000 compounds or so, about 540 (0.36%) showed an effect of 50% or more. Some of the results follow.

The assay deals with Plasmodium falciparum. Briefly: Primary screen in NF54 nanoGlo assay, in single point, at 2uM, 72h; a lower Z score goes with more inhibition. The assay is classed as functional, Erythrocyte. The note with it: timepoint 72 hour.
A word on the % Inhibition: it is the change of the read-out against control, counted positive when it falls. Regarding `COc1cccc(CN2C[C@@H]3C[C@H]2C(=O)NC[C@@H]2CCC[C@@H](CCOc4ccccc4C(=O)N3)O2)c1`, the “% Inhibition” value worked out at 0% and the Z score came to 0.

On to `CCc1[nH]c2c(CNC(=O)[C@H](Cc3c[nH]cn3)NC(C)=O)cc(F)cc2c1C`, for which the “% Inhibition” value is -7% and the Z score came to 1.31.

`CC(C)Cc1noc(CN(C)C(=O)CCc2nncn2C)n1`: the “% Inhibition” value is reported as -6% and the Z score worked out at 0.76.

In the case of `Cc1ccccc1-c1cc(NC(=O)Nc2c(C)n[nH]c2C)n(C)n1`, the “% Inhibition” value is reported as -16% and the Z score worked out at 1.6.

Consider `Cc1ccc(F)c(NC(=O)N2CCC[C@H](c3cn[nH]c3)C2)c1`, for which the “% Inhibition” value is recorded as -10% and the Z score turned out to be 1.88.

In the case of `Clc1ccc(-c2nnc(-c3cccnc3NCCC3=CCCCC3)o2)cc1`, the “% Inhibition” value is given as 1% and the Z score is recorded as -0.08.

As to `Cc1csc(C2=C(O)CN(C[C@H]3CCCO3)C2=N)n1`, the “% Inhibition” value was -6% and the Z score stood at 0.6.

With `O=S(=O)(c1ccccc1)N(Cc1cccs1)C1CCOCC1`, the “% Inhibition” value is listed as -4% and the Z score was determined as 0.69.

Take `C[C@]1(CNC(=O)Nc2cccc(CN3CCOCC3)n2)CCCCO1`: the “% Inhibition” value is on record as -6% and the Z score is 1.13.

For `COc1ccc(-c2n[nH]c(CC(C)C)c2NC(=O)Cc2ccc(F)cc2)cc1OC`, the “% Inhibition” value was found to be 2% and the Z score is listed as -0.27.

With `CN(C)c1ccccc1-c1ccc(C(=O)O)cc1CO`, the “% Inhibition” value was -7% and the Z score is 1.12.

As for `Cc1cccc(NC(=O)c2cccc(N3C[C@@H](C(=O)Nc4ccc(F)cc4)CC3=O)c2)c1`, the “% Inhibition” value is on record as -29% and the Z score was 2.77.

`Cc1cnc(C(=O)NCC(=O)c2ccccc2Cl)cn1`: the “% Inhibition” value worked out at 9% and the Z score was -0.94.

For the compound `CCC(CC)[C@H](CNC(=O)Nc1ccc(N2CCOCC2)cc1C)N1CCCC1`, the “% Inhibition” value is reported as -5% and the Z score was determined as 0.82.

On to `O=C(CC1CCCCC1)N[C@H](c1ccccc1)c1nnc(N2CCCCC2)o1`, for which the “% Inhibition” value is recorded as -10% and the Z score came to 1.19.

For the compound `CC(=O)c1cccc(N[C@@H](C)C(=O)N2CCCCCC2)c1`, the “% Inhibition” value was -13% and the Z score is on record as 2.11.

On to `O=C(CCNC(=O)c1ccncc1)NCCCN(C1CC1)S(=O)(=O)c1cccc(F)c1`, for which the “% Inhibition” value is -5% and the Z score was found to be 0.74.

With `CCn1ccnc1CNC(=O)NCc1cc(Br)cnc1OC`, the “% Inhibition” value was 10% and the Z score is given as -1.68.

`Cc1nn(C)c(C)c1NC(=O)CN1C(=O)N[C@H](c2cc(Br)ccc2F)C1=O`: the “% Inhibition” value was -12% and the Z score is 1.65.

As for `Cc1cccc(CC2(NC(=O)[C@H](C)N(C)C)CC2)c1`, the “% Inhibition” value is 1% and the Z score is recorded as -0.22.

Consider `O=S1(=O)C[C@H](O)[C@@H](n2ccnc2-c2nc3c(s2)CCCC3)C1`, for which the “% Inhibition” value is -16% and the Z score was determined as 1.5.

For the compound `COCc1csc(NC(=O)c2[nH]cnc2C(=O)c2ccccc2)n1`, the “% Inhibition” value is -1% and the Z score is given as 0.11.

For the compound `CCC(=O)Nc1ccc(-c2cccc(-c3cc[nH]n3)c2)c(C)n1`, the “% Inhibition” value is -9% and the Z score amounted to 1.07.

For `O=C(c1ccsc1)N1CCC[C@@](F)(C(=O)N2CCOCC2)C1`, the “% Inhibition” value is -16% and the Z score came out at 1.39.

Turning to `CN1C(=O)[C@]2(CCN(C(=O)c3cccc(Cl)c3)C2)c2ccccc21`, the “% Inhibition” value is reported as -17% and the Z score stood at 2.18.

Take `Cc1nc(N)cc(NCCCCN2CCCC2)n1`: the “% Inhibition” value came out at 8% and the Z score is listed as -1.56.

Regarding `CC(=O)Nc1c2n(c3ccc(F)cc13)C[C@@](C)(C(=O)NC1CCCCCC1)N(CCN(C)C)C2=O`, the “% Inhibition” value is -21% and the Z score came out at 2.01.

For `CN(CC(=O)N1CCCCC1)C1CCCCC1`, the “% Inhibition” value is listed as -12% and the Z score is listed as 1.32.

`CCn1cc(C#N)c(=O)c2cc(F)c(N3CCN(Cc4ccccc4)CC3)cc21`: the “% Inhibition” value is on record as 68% and the Z score is on record as -7.22.

As for `Cc1[nH]c(C(=O)O)c(C)c1C(=O)N(C)CCCOc1ccc(Cl)cc1`, the “% Inhibition” value is -1% and the Z score amounted to 0.25.

As for `CCc1cnc(NCc2c(C)nn(CC)c2C)nc1`, the “% Inhibition” value is listed as -8% and the Z score came out at 0.8.

Turning to `O=C(c1cccnc1)N1C[C@H]2CC[C@@H](C1)N(CCOc1ccc(F)cc1)C2`, the “% Inhibition” value is recorded as -6% and the Z score came out at 1.26.

`O=C(CN1CCC(c2ccnn2CCO)CC1)N(Cc1ccccc1)C1CC1`: the “% Inhibition” value came to 36% and the Z score is given as -4.64.

With `Cc1ccc(-c2ccc(S(=O)(=O)N3CCCCCC3)cc2)cc1`, the “% Inhibition” value is on record as 1% and the Z score is -0.16.

On to `COc1ccccc1/C=C/CN1CCC[C@H](CNC(=O)c2cccnc2)C1`, for which the “% Inhibition” value is given as -12% and the Z score is given as 1.11.

In the case of `COCCCN1C(=O)C[C@](CC(=O)N2CCN(c3ccc(F)cc3)CC2)(c2ccccc2OC)C1=O`, the “% Inhibition” value was -5% and the Z score turned out to be 0.73.

As for `CCOc1ccc(NC(=O)N2CC(=O)N(CC(=O)N3CCCCCC3)c3ccccc32)cc1`, the “% Inhibition” value is recorded as -2% and the Z score is on record as 0.26.

Regarding `CC1CCCCCN1C(=O)C1C2CCCCC21` (centres undefined), the “% Inhibition” value was -6% and the Z score turned out to be 0.89.

On to `O=C(NCc1cccnc1)c1nc(-c2nc(C3CC3)no2)cs1`, for which the “% Inhibition” value was determined as 6% and the Z score is -0.85.

In the case of `Cc1ccc(C(=O)N2[C@H](C(=O)NCc3ccco3)COC23CCN(C(=O)c2ccccc2Cl)CC3)cc1`, the “% Inhibition” value was -12% and the Z score is 1.52.

Take `COCCCCN1CCN(c2nnc(C(C)C)s2)CC1`: the “% Inhibition” value is reported as -5% and the Z score is 0.87.

`Cc1nn(CCCNC(=O)CCn2nc(C(F)(F)F)c(Cl)c2C)cc1Br`: the “% Inhibition” value is 19% and the Z score is -2.32.

For `CC(C)c1nnsc1CN1C[C@H](C2CC2)[C@@H](N)C1`, the “% Inhibition” value is on record as -14% and the Z score is recorded as 1.23.

As to `CC(C)c1ccccc1OCCNC(=O)NCc1nccs1`, the “% Inhibition” value is listed as -2% and the Z score amounted to 0.21.

As for `COC(=O)C(N[C@@H](C)C(N)=O)c1cccc(Cl)c1Cl` (some centres undefined), the “% Inhibition” value is given as -3% and the Z score is 0.51.

Turning to `COCCCN(C(=O)c1ccc(-c2cccc(Cl)c2)nc1N1C[C@@H](C)O[C@@H](C)C1)C1CCN(C)CC1`, the “% Inhibition” value is reported as -8% and the Z score was found to be 1.16.

As for `CC[C@H]1CC[C@H](C(=O)NC[C@](C)(O)C(=O)OC)CC1`, the “% Inhibition” value is listed as -5% and the Z score was determined as 0.83.

As to `Cc1ccc(=O)n(CC(=O)N(Cc2ccccn2)Cc2ccc(Br)cc2F)n1`, the “% Inhibition” value is 1% and the Z score was -0.21.

Consider `CC[C@@](C)(CNC(=O)Cc1sc(C)nc1-c1ccc(C)cc1)N1CCOCC1`, for which the “% Inhibition” value turned out to be 17% and the Z score is listed as -2.29.

Consider `Cc1cccc(-c2ccc(C(=O)NCc3ccnc(C)n3)c(=O)[nH]2)c1`, for which the “% Inhibition” value is -9% and the Z score amounted to 1.38.

Consider `CCN1CCN(C2(C(=O)N(C)C(C3CC3)C3CC3)Cc3ccccc3C2)CC1`, for which the “% Inhibition” value is reported as -11% and the Z score is recorded as 1.48.

On to `N#CCCN(CC(F)(F)F)C(=O)c1ccc2c(c1)N=S=N2`, for which the “% Inhibition” value is on record as 9% and the Z score is given as -1.17.
